In all, about 110,000 compounds were measured (“z-score”: median about -0.1, highest 2% from about 2 on). The list shows a part of the results. Calls of active or inactive are those of the source.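 How the source made its calls: active means z-score in the third read window above 3 or below -3; inactive means the rest.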

This assay deals with Metabotropic glutamate receptor 8 (Rattus norvegicus) (UniProt P70579). Briefly: rat mGluR8 modulators via GIRK flux, primary screen, cell-based, thallium flux, HTS (AID 488969). The following applies: HEK293 rat mGluR8, GIRK (G protein-gated inwardly rectifying potassium channel) thallium flux, FluoZin2; at 10 µM; stronger effect = higher value.
UniProt P70579, sequence (P70579 whole entry, looked up): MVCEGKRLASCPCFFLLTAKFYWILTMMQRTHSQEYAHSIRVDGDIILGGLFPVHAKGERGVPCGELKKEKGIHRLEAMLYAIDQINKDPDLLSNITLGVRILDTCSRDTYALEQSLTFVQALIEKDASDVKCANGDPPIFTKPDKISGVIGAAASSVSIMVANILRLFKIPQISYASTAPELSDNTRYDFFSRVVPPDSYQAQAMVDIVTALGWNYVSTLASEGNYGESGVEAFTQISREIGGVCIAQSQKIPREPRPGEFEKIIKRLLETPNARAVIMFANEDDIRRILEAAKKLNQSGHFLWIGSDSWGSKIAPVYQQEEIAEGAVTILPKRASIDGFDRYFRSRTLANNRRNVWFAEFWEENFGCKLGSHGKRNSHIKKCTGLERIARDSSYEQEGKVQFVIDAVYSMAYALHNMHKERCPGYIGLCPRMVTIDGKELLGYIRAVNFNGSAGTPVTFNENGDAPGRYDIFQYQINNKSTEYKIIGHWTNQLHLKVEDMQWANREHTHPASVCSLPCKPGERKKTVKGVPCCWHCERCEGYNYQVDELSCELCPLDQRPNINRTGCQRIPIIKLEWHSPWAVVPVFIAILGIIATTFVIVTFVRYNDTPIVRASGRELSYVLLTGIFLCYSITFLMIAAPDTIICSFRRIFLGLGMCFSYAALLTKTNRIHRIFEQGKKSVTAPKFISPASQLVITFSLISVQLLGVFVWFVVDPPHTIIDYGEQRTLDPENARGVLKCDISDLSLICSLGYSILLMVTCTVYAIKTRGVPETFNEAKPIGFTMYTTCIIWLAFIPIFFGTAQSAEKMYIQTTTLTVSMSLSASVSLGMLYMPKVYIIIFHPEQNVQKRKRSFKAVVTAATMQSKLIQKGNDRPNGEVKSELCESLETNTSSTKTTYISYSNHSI
For the molecule `CCCCc1nc2ccccc2c(=O)n1-c1ccccc1O`, the z-score was -0.0881.

In the case of `Cn1c(=O)cc(OCC(=O)N2CCN(Cc3ccc4c(c3)OCO4)CC2)c2ccccc21`, the z-score is -0.244.

Consider `c1ccc(C2=NP(N3CCOCC3)(N3CCOCC3)=NC(N3CCOCC3)=N2)cc1`, for which the z-score is -0.516.

For the molecule `CC(C)C12CN3CCN(CC(C3)C1O)C2` (configuration not stated), the z-score was -0.631.

`CN1C(=O)/C(=C/c2cccn2-c2ccc3ccccc3c2)C(=O)NC1=S`: the z-score is 0.0101.

Regarding `CC[N+](CC)(CC)CCCCCCCCCC[N+](CC)(CC)CC`, the z-score came to 0.161.

`CCOC(=O)C1=C(N)Oc2cc(C)oc(=O)c2C12C(=O)N1c3c(cccc32)C(C)=CC1(C)C` (configuration not stated) came in with a z-score of -0.154.

For `O=P(C(=Nc1ccc(Cl)cc1)N1CCOCC1)(N1CCOCC1)N1CCOCC1`, the z-score worked out at 0.307.

As for `O=C1NC(=O)N(Cc2ccco2)C(=O)/C1=C\c1cccn1CCOc1ccc(Cl)cc1`, the z-score is -0.201.

Molecule `O=C(c1ccccc1)c1cn(CC(=O)N2CCCC2)c2ccccc12` came in with a z-score of -0.206.

`CC1=C(/C=C/c2ccccc2)CCN(C)C1` had a z-score of -0.494.

As for `O=C1/C(=C/c2cc3c(cc2Cl)OCO3)N2CCC1CC2`, the z-score is -0.321.

Consider `Cc1nc2cc(C(F)(F)F)ccc2n1C1CCN(Cc2nnnn2CCc2ccccc2)CC1`, for which the z-score was 0.0449.

In turn, `CC(=O)N1N=C2C3CCN(CC3)C2C1c1ccccc1` (configuration not stated) displayed a z-score of -0.042.

In the case of `CCC1(CC)C(=N)N(C)C(=O)NC1=O`, the z-score was -0.128.

`CSCCC(N=Cc1c(O)n(-c2ccc(F)cc2)c(=O)[nH]c1=O)C(=O)OC(C)(C)C` (configuration not stated): the z-score came out at 1.37.

`O=C(Nc1cccc2ccccc12)c1nn(C23CC4CC(CC(C4)C2)C3)cc1Br` returned a z-score of 0.155.

In turn, `O=[N+]([O-])c1cc(S(=O)(=O)c2ccc(O)c([N+](=O)[O-])c2)ccc1O` returned a z-score of -0.235.

On to `CC(C)c1ccc(-n2c(O)c(/C=N/NC(=O)c3ccncc3)c(=O)[nH]c2=O)cc1`, for which the z-score was -0.321.

Molecule `CC12CC(c3ccccc3O1)C(C(=O)OCc1ccccc1)C(=O)N2` (configuration not stated) showed a z-score of 0.121.

`O=C(CN1CCCC1=O)Nc1ccccc1` displayed a z-score of -0.327.

The molecule `C=CCn1c(O)c(C(CC)=Nc2cc(OC)ccc2OC)c(=O)[nH]c1=O` displayed a z-score of -0.933.

As for `CC(C)c1ccc(N2C(=O)NC(=O)/C(=C\c3cnc(-c4ccccc4)nc3)C2=O)cc1`, the z-score was -0.00736.

In the case of `Cc1nn(Cc2ccccc2Cl)c(Cl)c1C(=O)OCC(=O)NC(=O)NC1CCCCC1`, the z-score was -0.318.

`CN(C)Cc1ccccc1OC(=O)N(C)C` returned a z-score of 0.0556.

In the case of `CCOP(=O)(OCC)C(NC(=O)c1ccc(Cl)cc1)=C(Cl)Cl`, the z-score was -0.0435.

Molecule `COc1ccc(C=C2C(=O)N(C)C(=O)N(C)C2=O)cc1CSc1ccccn1` showed a z-score of -0.462.

On to `CNCC(O)c1cccc(OC(=O)c2ccccc2C)c1` (configuration not stated), for which the z-score was determined as 2.34.

For the molecule `CCC(=O)c1cn(Cc2ccc(C#N)cc2)c2ccccc12`, the z-score is -0.807.

`CC(=O)OC1(c2ccccc2)CCN(C)C(C)C1C` (configuration not stated): the z-score was determined as 0.365.

Molecule `CC(c1ccccc1F)n1cc(C(=O)Nc2ccc3nc[nH]c3c2)nn1` (configuration not stated) showed a z-score of -1.48.

Molecule `CCC(=NCCCN(CC)CC)c1c(O)n(C2CCCCC2)c(=O)[nH]c1=O` yielded a z-score of -0.25.

In the case of `CCCCc1nc2ccccc2c(=O)n1-c1ccccc1[N+](=O)[O-]`, the z-score is -0.394.

`Cc1ccc(N2C(=O)NC(=O)C3(Cc4ccccc4N4CCN(c5ccccc5)CC43)C2=O)cc1` (configuration not stated) registered a z-score of 0.145.

In the case of `CN1C(=O)N(C)C(=O)C2(Cc3c(ccc4ccccc34)N(C)C2)C1=O`, the z-score worked out at 0.249.

`Cc1ccc(N2C(=O)NC(=O)C(CCc3ccncc3)(Cc3cccc(Cl)c3Cl)C2=O)cc1` (configuration not stated) showed a z-score of -0.709.

Molecule `C=CCn1c(O)c(C(C)=Nc2ccc(N(CC)CC)cc2)c(=O)[nH]c1=O` came in with a z-score of -0.556.

Turning to `CCCC1C(C#N)=C(N)Oc2c1c(=O)oc1ccccc21` (configuration not stated), the z-score is -0.98.

`Cc1ccccc1C1=NCC(=S)Nc2ccc(Cl)cc21`: the z-score was active: 4.39.

Molecule `CN1CCc2c(C#N)c(Cl)nc(Cl)c2C1` registered a z-score of 0.252.

`Cc1cccc(NC(N)=S)c1`: the z-score was determined as 0.00399.

`C#CCNc1ccncc1S(=O)(=O)NC(=O)NC(C)C` showed a z-score of 0.02.

Regarding `CN1CCC(N(C)Cc2cccnc2)CC1`, the z-score is -0.166.

As to `COC(=O)c1c(C)n(Cc2ccc3c(c2)OCO3)c2ccc(O)cc12`, the z-score was -0.95.

On to `O=C(CN1CCN(CCO)CC1)Nc1ccc(Cl)cc1C(=O)c1ccccc1`, for which the z-score was -0.0657.

Consider `Cc1ccc2c(c1)CC1(CN2C)C(=O)NC(=O)N(C(C)C)C1=O` (configuration not stated), for which the z-score is -0.186.

`CCOC(=O)C1=C(N)Oc2cc(C)oc(=O)c2C12C(=O)N1c3c(cc(OC)cc32)C(C)=CC1(C)C` (configuration not stated) showed a z-score of 1.07.

Molecule `OCC12CO[C@@H]3c4ccccc4[C@H](OC1)N32` (some centres not stated) yielded a z-score of -0.0926.

`CCOC(=O)C1=C(C)OC(N)=C(C#N)C12C(=O)Nc1ccc(C)cc12` (configuration not stated) showed a z-score of -0.252.

`CCCCCCOc1ccc(CN2CCN(C)CC2)cc1` showed a z-score of 0.71.

In the case of `CCCCn1c(O)c(C(C)=NCCc2ccccc2)c(=O)[nH]c1=O`, the z-score was -0.429.

In turn, `O=C(Cc1ccccc1)Oc1ccc(N2C(=O)CCC2=O)cc1` showed a z-score of -0.0169.

In turn, `CCc1ccccc1NC(=O)CSc1nnc([C@@H](N)Cc2c[nH]c3ccccc23)o1` showed a z-score of -0.13.

Regarding `CCOC(=O)C1=C(N)Oc2ccccc2C12C(=O)N(CC(=O)OC)C(CC(=O)OC)=C2C(=O)OC` (configuration not stated), the z-score was -0.147.

In the case of `Cc1cccn2c(=O)c3cc(C(=O)N4CCC5(CC4)OCCO5)n(C)c3nc12`, the z-score is -0.378.

For the molecule `Cc1ccc(C(=O)n2cc(CCN3CCS(=O)(=O)CC3)c3ccccc32)cc1`, the z-score was found to be 0.0725.

In the case of `Cc1ccc(CC2C(=O)N(C)C(=O)N(C)C2=O)s1`, the z-score is 0.26.

`O=C(C1CCC(=O)N1C1CCCC1)N1CCC2(CC1)OCCO2` (configuration not stated) came in with a z-score of -0.00875.

In turn, `COc1ccc(OCC(=O)N2CCN(C3CCC(c4ccccc4)CC3)CC2)cc1` (configuration not stated) registered a z-score of 0.14.

In turn, `O=c1c(C=NCCN2CCNCC2)c(O)n(C2CCCCC2)c(=O)n1C1CCCCC1` returned a z-score of 2.42.

In turn, `O=C(N/N=C/c1c(O)n(-c2ccccc2)c(=O)[nH]c1=O)c1ccncc1` yielded a z-score of -0.0892.

On to `CCOC(=O)c1c(-n2c(C)cc(/C=C3/C(=O)NC(=O)N(CC)C3=O)c2C)sc2c1CCCC2`, for which the z-score was -1.61.

`O=C(CN1CCCCC1)NCC(=O)Nc1ccc(Br)cc1C(=O)c1ccccc1` came in with a z-score of -0.631.

`CCn1c(O)c(C(c2ccccn2)c2c(O)n(CC)c(=S)[nH]c2=O)c(=O)[nH]c1=S` gave a z-score of -0.0345.

`O=C(NC(c1ccc(Cl)cc1)P(=O)(Oc1ccccc1)Oc1ccccc1)OCc1ccccc1` (configuration not stated) displayed a z-score of -0.232.

In turn, `CN(C)C(=O)Oc1cccc2c(OC(=O)N(C)C)cccc12` had a z-score of -0.255.

As to `O=C(Cn1cnc2sc3c(c2c1=O)CCCC3)NCCC(=O)N1CCC2(CC1)OCCO2`, the z-score turned out to be 1.33.

Values taken from PubChem BioAssay AID488969 (Vanderbilt High Throughput Screening Facility, 2010).
